Measurements: ChEMBL document CHEMBL4888484, “Replenishing the malaria drug discovery pipeline: Screening and hit evaluation of the MMV Hit Generation Library 1 (HGL1) against asexual blood stage Plasmodium falciparum ,using a nano luciferase reporter read-out” (2022)
Screen size: about 150,000 compounds; about 540 (0.36%) showed an effect of 50% or more. This is one part of the list.

Tested on: Plasmodium falciparum
Assay: Primary screen in NF54 nanoGlo assay, in single point, at 2uM, 72h; a lower Z score goes with more inhibition
Type: functional, Erythrocyte
Conditions: timepoint 72 hour

Row | SMILES | % Inhibition [%] | Z score
1 | CC(C)(C)CN1C(=O)C2(CCN(CC3CC3)CC2)Nc2ccccc21 | -9 | 1.76
2 | CC(=O)N[C@H]1CN(Cc2cc(C(N)=O)oc2C(C)(C)C)C[C@@H]1C1CC1 | -11 | 1.92
3 | Cc1cccc(CN(Cc2ccccn2)Cc2n[nH]c3c2COCC3)c1 | 2 | -0.27
4 | CCn1c(=O)c(-c2nc(-c3ccc(OC(C)C)cc3)no2)c(O)c2ccccc21 | -14 | 1.89
5 | CCN(CCC#N)C(=O)Cn1ccnc1C(C)C | -9 | 1
6 | COCC(=O)N[C@@H](Cc1ccccc1)c1nc2ccccc2n1Cc1ccccc1F | 6 | -0.6
7 | Cc1nccn1-c1ccnc(C(=O)NCc2nnc(C3CC3)s2)c1 | -7 | 0.94
8 | NC[C@H]1CCCN1C(=O)c1cccc(-n2nccc2C(F)(F)F)c1 | 12 | -1.14
9 | COc1ccc(N2CCN(C(=O)CN(C)c3nnc(N4CCCC4=O)s3)CC2)cc1 | -5 | 0.88
10 | Cc1ccc(S(=O)(=O)NCc2ccc(C(=O)Nc3cnc4ccccc4c3)cc2)cc1C | -14 | 2.07
11 | CCCc1nc(NCCc2n[nH]c(N)n2)no1 | 3 | -0.54
12 | CC[C@@]1(C)CCN(C(=O)CS(=O)(=O)CC)C1 | -5 | 0.77
13 | CC(=O)Oc1c(-c2ccc(NS(=O)(=O)c3ccc(C)cc3)cc2)c(-c2ccc(N(C)C)cc2)nn1-c1ccc(F)cc1 | 2 | -0.24
14 | CC(C)CC(=O)Nc1nnc([C@H]2CC(=O)N(c3ccc(Cl)cc3)C2)o1 | -3 | 0.37
15 | O=C(CCn1cnc2cc(S(=O)(=O)N3CCCCC3)ccc21)NCc1ccc(F)cc1 | -18 | 1.83
16 | Cc1cc(C)c(NC(=O)OCc2cccc3cccnc23)c(C)c1 | 88 | -13.23
17 | O=C(Nc1ccc(Cl)c(Cl)c1)c1cc(Br)ccc1NS(=O)(=O)c1ccc(Br)c2nsnc12 | -10 | 1.29
18 | CCC(=O)N1CCC(N2C[C@H](OCC3CC3)C23CCOCC3)CC1 | -7 | 1.32
19 | COc1cccc2c1OC[C@H](NC(=O)c1cnc(N(C)C)cn1)C2=O | -2 | 0.3
20 | COCC(=O)NC[C@H](O)c1c(Cl)cccc1Cl | -1 | 0.18
21 | c1cc2c(cc1[C@H]1NCCCCCCO1)OCO2 | 40 | -5.19
22 | CCN(CC)C(=O)Cn1nc(C(F)(F)F)c2cnccc21 | 16 | -1.58
23 | CC(C)(NC(=O)c1cccs1)C(=O)NC1CCCCCC1 | -5 | 0.7
